{"source": "the supplement of paper PMC4604168 (melanoma cell lines)", "note": "Some of the results follow. Repeats are few or missing, and single values can be far off.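 Further: cells treated in 1,536-well plates, then fixed and DAPI-stained, with nuclei counted from automated high-throughput microscope images.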", "data": [{"system": "WM1745", "experiment": "cell count relative to DMSO control; higher = more viable cells", "conditions": "library dose: standard library concentration; 72 h", "units": {"cell count": "%"}, "values": [{"smiles": "COc1cc2c(Oc3ccc4[nH]c(C)cc4c3F)ncnc2cc1OCCCN1CCCC1", "note": "[cediranib] + CCN(CC)CCCCNc1ncc2cc(-c3cc(OC)cc(OC)c3)c(NC(=O)NC(C)(C)C)nc2n1 [PD173074] (first compound 2 µM, partner dose 0.5 µM)", "cell count": 83.6}, {"smiles": "NC(=O)c1ccc(N(C(N)=O)c2c(F)cccc2F)nc1-c1ccc(F)cc1F", "note": "+ CN(C)S(=O)(=O)c1ccc2c(c1)/C(=C/c1cc3c([nH]1)CCCC3)C(=O)N2 [SU6656] (first compound 2 µM, partner dose 2 µM)", "cell count": 62}, {"smiles": "CCCCCCCCc1ccc(CCC(N)(CO)CO)cc1", "note": "[fingolimod] + COCC[n+]1c2c(n(Cc3cnccn3)c1C)C(=O)c1ccccc1C2=O [YM155] (first compound 10 µM, partner dose 0.002 µM)", "cell count": 4.3}, {"smiles": "CC(C)(C)c1cnc(CSc2cnc(NC(=O)C3CCNCC3)s2)o1", "note": "+ COc1ccc2c(c1)CCC1C2CCC2(C)C(NCCCCCCN3C(=O)C=CC3=O)CCC12 [U73122] (first compound 0.05 µM, partner dose 2 µM)", "cell count": 77.6}, {"smiles": "CC(C)(C)c1cnc(CSc2cnc(NC(=O)C3CCNCC3)s2)o1", "note": "+ COc1ccc(COc2ccc(Cc3cnc(N)nc3N)cc2OC)cc1 [GW2580] (first compound 0.05 µM, partner dose 5 µM)", "cell count": 94.7}]}, {"system": "WM3526", "experiment": "cell count relative to DMSO control; melanoma cells; higher = more viable cells", "conditions": "library dose: standard library concentration; 72 h", "units": {"cell count": "%"}, "values": [{"smiles": "COc1cc2c(Oc3ccc4[nH]c(C)cc4c3F)ncnc2cc1OCCCN1CCCC1", "note": "[cediranib] + N#Cc1c(O)c2c(-c3ccc(-c4ccccc4O)cc3)csc2[nH]c1=O [A769662] (first compound 2 µM, partner dose 10 µM)", "cell count": 87.9}, {"smiles": "CC(C)(C)c1cnc(CSc2cnc(NC(=O)C3CCNCC3)s2)o1", "note": "+ CN(C)S(=O)(=O)c1ccc2c(c1)/C(=C/c1cc3c([nH]1)CCCC3)C(=O)N2 [SU6656] (first compound 0.05 µM, partner dose 2 µM)", "cell count": 94}, {"smiles": "COc1cc2c(Oc3ccc4[nH]c(C)cc4c3F)ncnc2cc1OCCCN1CCCC1", "note": "[cediranib] + COc1ccc(COc2ccc(Cc3cnc(N)nc3N)cc2OC)cc1 [GW2580] (first compound 2 µM, partner dose 5 µM)", "cell count": 73}, {"smiles": "CCCCCCCCc1ccc(CCC(N)(CO)CO)cc1", "note": "[fingolimod] + OCCn1cc(-c2cnc3nnn(Cc4ccc5ncccc5c4)c3n2)cn1 [PF04217903] (first compound 10 µM, partner dose 5 µM)", "cell count": 66}, {"smiles": "NC(=O)c1ccc(N(C(N)=O)c2c(F)cccc2F)nc1-c1ccc(F)cc1F", "note": "+ Clc1ccc(Nc2nnc(Cc3ccncc3)c3ccccc23)cc1 [vatalanib] (first compound 2 µM, partner dose 10 µM)", "cell count": 76.7}, {"smiles": "CCc1ccc(CCOc2ccc(CC3SC(=O)NC3=O)cc2)nc1", "note": "(stereo unspecified) [pioglitazone] + CC(C)CCN1c2nc(Nc3cc(F)c(O)c(F)c3)ncc2N(C)C(=O)C1C [BID1870] (first compound 10 µM, partner dose 1 µM)", "cell count": 78.9}, {"smiles": "Cc1ccc(NC(=O)c2cccc(N(C)C)c2)cc1NC(=O)c1ccc(O)cc1", "note": "+ CN(C)S(=O)(=O)c1ccc2c(c1)/C(=C/c1cc3c([nH]1)CCCC3)C(=O)N2 [SU6656] (first compound 10 µM, partner dose 2 µM)", "cell count": 87.5}, {"smiles": "NC(=O)c1ccc(N(C(N)=O)c2c(F)cccc2F)nc1-c1ccc(F)cc1F", "note": "+ Cc1cc(N2CCOCC2)cc2[nH]c(-c3c(NC[C@@H](O)c4cccc(Cl)c4)cc[nH]c3=O)nc12 [BMS536924] (first compound 2 µM, partner dose 1 µM)", "cell count": 85.5}, {"smiles": "Cc1ccc(NC(=O)c2cccc(N(C)C)c2)cc1NC(=O)c1ccc(O)cc1", "note": "+ CCCCCCCCCCCC1=C(O)C(=O)C=C(O)C1=O [Embelin] (first compound 10 µM, partner dose 6 µM)", "cell count": 94.8}, {"smiles": "CN(NC(=O)CC(=O)NN(C)C(=S)c1ccccc1)C(=S)c1ccccc1", "note": "+ Cn1cc(/C=C2\\C(=O)Nc3cccnc32)c2ccccc21 [GW441756] (first compound 0.03 µM, partner dose 2 µM)", "cell count": 80.9}, {"smiles": "CCCCCCCCc1ccc(CCC(N)(CO)CO)cc1", "note": "[fingolimod] + O=C(O)[C@@H]1[O][Sb](=[O])([O][Sb]2(=[O])[O][C@H]([C@H](O)CO)[C@H](O)[C@H](C(=O)O)[O]2)[O][C@H]([C@H](O)CO)[C@@H]1O [stibogluconate] (first compound 10 µM, partner dose 10 µM)", "cell count": 15.6}]}]}
